Sequences with one replicate were seen in a single cluster, so their values are uncertain.
System: ATP
Assay: switch fluorescence ratio, 500 uM ATP over buffer (Cy3 cluster intensity, sum of 5 cycles each) (fold (ratio)); higher = stronger signal-on switching upon ATP binding; sequences stand for … in TCGTCGGCAGCGTCAGATGTGTATAAGAGACAGTTTTTTTTTTTTTTTTTTTTTTTTT…TC
Settings: aptamer strand: ATP DNA aptamer (quencher-CACCTGGGGGAGTATTGCGGAGGAAGG + anchor), 100 nM annealed; ATP concentration: 500 uM; one replicate
Summary of the method: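 Clusters with intensities outside 100-1000 RFU were excluded. The remaining Cy3-labelled switching-strand clusters on a modified Illumina MiSeq flow-cell had been annealed to 100 nM quencher-labelled ATP aptamer and imaged in selection buffer, then after 15 min with 500 uM ATP at 22 °C, for five cycles separated by NaOH stripping and re-annealing. The fluorescence ratio, averaged per switch-domain sequence, is each cluster's summed target-cycle Cy3 intensity over its summed buffer-cycle Cy3 intensity.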
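Further: ATP exposure 15 min at 22 °C before imaging.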

Sequence | switch fluorescence ratio
ATTCATACAC | 1.02
CTATTGGACG | 0.896
AATTATACGA | 1.06
CTCATATGAC | 1.02
GGAGACAATA | 1.71
AAGGTGCTGG | 1.01
TGACATTAGG | 0.993
GGGGCTAAA | 0.922
TATCAAAGT | 1.03
ATTATGTTA | 1.05
CCTGTGGCCC | 1.06
TTAGGTGGTG | 1
CCACCATGCG | 1.16
AGCCTTTGAG | 0.958
TATTTCCGAC | 1.51
CAGAGGCGTA | 1.07
TGAAGTTCTA | 1.02
AACGTTGCA | 1.02
TTCGGGTTG | 0.989
CTTTAGAAGG | 0.923
CCGGGCATAT | 5.52
ATCAATGTAT | 0.968
TGTTGATTCT | 1.02
CATCGTTCAT | 0.995
AGCTCACAAG | 1.01
GTCTTAACGT | 0.986

Sequence | switch fluorescence ratio
GTGTGACGTA | 1.07
TCTTGGGGA | 0.99
TGTAAATA | 1.01
GGGTCCAGCG | 1.03
TCCCTCATTA | 1.02
GTTCGCTCCT | 1.08
AGCGAACCGG | 0.981
GTCCTGAGAA | 1.01
CTGCCGGGTA | 1.05
CGGAGCGCCC | 1.15
ATAGCTCA | 1.07
GCCGCCATAG | 4.18
CTGTAATTTG | 0.942
GTGGTTACGA | 1.02
ACAGGGCCAG | 1.06
GCCTTTTAGA | 1
AGTCTGTGTA | 0.969
TCACGTTGAA | 1.01
AGCATGTAAG | 1.02
GTTATGCGTT | 0.987
GCGCGATTGG | 1.01
TGGGTGCGTT | 1.01
CTGGAGCGCG | 1.32
TCGCTGGACA | 0.975
ATGTGATCCC | 1.02
TACCGGTAGA | 1.07

Sequence | switch fluorescence ratio
AATGCTAGGT | 0.993
ACTGAGGTTA | 1.02
TAGAATGCAG | 0.967
ATGATGCTAT | 1.03
GCTGGCATCA | 0.993
ACGGCGATCA | 1.03
AGATTTAACT | 0.967
TGGTTCACCT | 1.04
AATCTTTGG | 1.03
TCGGCGTCTC | 1.03
GCTACGGGTT | 0.974
GTACCTGCAA | 1.7
TAGGGATTTA | 0.963
CACCCCCCAT | 1.62
GGCCTCGCTA | 1.09
TATATAA | 1.01
AGGACCCACT | 1.26
TGAATCCTGG | 1.05
CGTTTTTCA | 0.997
TTTGATGCTC | 1.06
CTTGTGTCTG | 1.01
CCTACGTCCT | 2.36
CTAGTAGTTT | 0.988
TATCACCAAA | 1.02
CTTGCATAGA | 0.995
CAAAGCGCGA | 1.07

Sequence | switch fluorescence ratio
ATTGGCGCCG | 0.995
GATCGAGGAG | 1.02
ACGTGCATCA | 1.08
AGGGCAATCC | 1.33
GGCCGTCGTC | 0.979
TTAGGTGAAA | 1.02
TTCGGCACTA | 1.03
ACGCACAAAA | 1.45
ACATCGTGGA | 1.02
GGCGAGACGA | 1.06
TGTTATCTTT | 0.981
CCTAAAGCTC | 1.29
CTCAAAGCGC | 0.989
GTGACTAAGT | 1.05
GAGATTGTCG | 1.05
CGAAAGGGG | 1.02
ATTTGAGTGG | 0.98
TTGAGCACCA | 1.05
CCGGCTGCTA | 1.78
TATTGCATAG | 0.956
GGATTATAG | 0.957
GAACGTACCC | 1.67
TGCACGTCCA | 1.08
ATTCGGATAG | 1.07
TGCGAATATT | 1.01
TTAAGAGGGC | 1.07

Sequence | switch fluorescence ratio
GTGGAGGTT | 1.04
GGCTCTGCGT | 1.08
CCCGGTGGC | 1.15
TGAATACTAT | 0.97
TTCGTACCG | 0.954
TCGTGTCCC | 0.963
TAGTTGGTAG | 1.01
AGATGCCTAT | 0.929
ATGCGAAATT | 0.977
GCACCCGAGT | 1.05
GGCAGCGATT | 1.05
GATGCTGGAT | 0.925
GCACATATCG | 1.05
TGTCGGATGG | 0.94
TCGGGATTTG | 1
CGGCCGCTAG | 2.13
GAATATCGTC | 0.956
TAACGAAGAA | 1.02
AAAAATCTTC | 0.975
TGATCCCTAC | 1.12
TATCTATTT | 0.968
GTCCAACGTT | 0.996
ATGCGTAAAC | 1.06
TTGCCATCCG | 1.01
TAGAGCAGAT | 1.06
TTGGTAGACC | 0.986

Sequence | switch fluorescence ratio
CAATGTAGCT | 0.982
CGGTCTGGTT | 0.991
ATAACCTCAT | 0.989
TCGCTTCTAT | 1.06
CACTCTTAGG | 1.01
AAAGACACT | 1.02
TGAAAGTTGC | 1.01
CTCGAACACT | 1.06
CATTTTTTCC | 0.92
TCTCATGAGT | 0.99
GATCAGATTG | 1.04
CACTGGGGGG | 1.02
GGAGTTCCGA | 0.967
CGTAAGGGGC | 1.02
ATTTACAGA | 1.08
AGTAGTCTTA | 0.977
TAAATTTCGT | 1.03
TGCGCAAGTA | 1.1
AGGCACTGGG | 1.02
TTCATTTAGA | 0.989
TGCCTCATGT | 0.977
TAACTCCGGG | 1.1
TATTTTTGAG | 0.965
TCTTAATGGA | 0.998
CCAACTAAAG | 1.01
GGTAAGCCAA | 0.981

Sequence | switch fluorescence ratio
AACCAGTGAG | 1
CGTTGAACCG | 0.949
TAGGCAAGTT | 0.953
CAGCATCGG | 1.06
TAAGATGCGG | 1.02
GCACATGTCT | 1.12
CCGTTGACC | 1.12
CACACTGTGC | 1.05
TGGGACACAC | 1.35
TAAGAGAACG | 0.956
CGGAGGGTTT | 0.978
CTACCACTCC | 1.52
CGCGCGGCAG | 0.98
GATCCTGGTG | 1.45
TTCTGTCTAG | 1.01
CCAATACGAT | 2.64
GTTAATTTAA | 1.01
GTTGGTTTTA | 1.01
ATGGTCAAGA | 0.967
CAGTGTGGGT | 1
CTCCTGGGTT | 1.05
ACTGGGTAAC | 0.974
GGTCTTGATC | 1.03
AGTTTGTCTA | 1.02
AGACTGTTGT | 1.02
CTAGTTGTCA | 1.02

Sequence | switch fluorescence ratio
CCAAACTTAT | 0.939
ACTGCTGCCC | 1.04
ACAAAAACTA | 1.06
CTTGTACTGA | 0.995
CGTGTATAAA | 0.961
CAATACTGTG | 1.15
CCTTACACG | 1.14
TAGATCTACA | 0.976
ACAGTGGCTA | 1.01
CGCATCGCTC | 1.57
TCTAGCGCCA | 1.07
GTCTACGGTG | 0.976
TGGGCGAGCA | 1
TGGGCCCTTG | 0.983
AGAACATTC | 1.01
GCAAGATAAC | 1.13
GTACTCATTG | 0.97
AGGTGTTCGT | 0.996
TTATATTGCT | 1.01

— the supplement of paper PMC10126150
